{
  "source": "PubChem BioAssay AID2675",
  "about": "(National Center for Advancing Translational Sciences (NCATS), 2010)",
  "note": "Hit rate of the full screen: of about 280,000 compounds, about 100 (0.036%) were called active. Inconclusive results, whose numbers are uncertain, are shown with a selection of clear calls. The call rests on the fitted dose curve; in most records, active means well fitted inhibition curve with a large enough effect in the signal ratio, with a control signal flat (not every such curve was filed as active); inconclusive means small, poorly fitted or top-dose-only effect, or effect the other way, or a change in a side signal; inactive means no such curve, though single readings can be large or run the other way; the % refers to the signal ratio. A potency beside an inconclusive call is a rough fit, not a confirmed value. “Side channel” marks fits to a control or component signal instead of the main read-out. On the % scale 0 is the no-effect control and ±100 the full control effect; potency means the concentration at half of the fitted maximal effect; tags describe the fitted curve by direction and shape or compound fluorescence and quenching.",
  "data": [
    {"target": "Muscleblind-like protein 1 (Homo sapiens) (UniProt Q9NR56)", "sequence (Q9NR56 whole entry, looked up)": "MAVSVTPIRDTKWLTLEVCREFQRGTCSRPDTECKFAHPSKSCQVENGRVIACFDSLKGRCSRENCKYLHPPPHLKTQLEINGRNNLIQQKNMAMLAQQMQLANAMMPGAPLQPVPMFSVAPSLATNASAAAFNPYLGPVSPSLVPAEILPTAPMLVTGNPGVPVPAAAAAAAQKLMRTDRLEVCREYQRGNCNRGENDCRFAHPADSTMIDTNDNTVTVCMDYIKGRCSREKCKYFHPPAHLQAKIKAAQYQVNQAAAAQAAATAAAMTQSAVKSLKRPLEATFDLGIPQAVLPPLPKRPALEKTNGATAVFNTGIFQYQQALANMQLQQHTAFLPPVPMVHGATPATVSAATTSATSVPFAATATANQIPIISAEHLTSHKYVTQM", "assay": "qHTS Assay for Inhibitors of MBNL1-poly(CUG) RNA binding", "settings": "TR-FRET MBNL1-His/biotin-(CUG)12 binding, 665/545 ratio; activity change, negative = inhibition: at 57.5 µM (top of the series)", "in_short": "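Inhibition of protein-RNA binding appears as loss of TR-FRET between terbium anti-His antibody on MBNL1-His and streptavidin-XL665 on biotin-(CUG)12. Activity is normalized to buffer-only and uninhibited-complex controls.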", "values": [
      {"smiles": "CC(=O)CSc1nsc(SCC(C)=O)c1C#N", "Potency": "inconclusive: 2.82 µM [quencher, side channel, full curve, poor fit]"},
      {"smiles": "Cc1cc(C)nc(SCCS(=O)(=O)Cc2ccccc2)n1", "activity change, negative = inhibition": "inactive: 0.0189%"},
      {"smiles": "CC(C)(C)S(=O)(=O)/C(C#N)=C/c1sccc1C1OCCO1", "Potency": "inconclusive: 17.8 µM [quencher, side channel, partial curve]"},
      {"smiles": "N#Cc1nc(-c2ccco2)oc1N1CCC(C(N)=O)CC1", "Potency": "inconclusive: 25.1 µM [quencher, side channel, single point]"},
      {"smiles": "CC1(NC(=S)N(CCO)CCO)CCS(=O)(=O)C1", "note": "(stereo not given)", "Potency": "inconclusive: 0.1 µM [fluorescent, side channel, full curve, poor fit]"},
      {"smiles": "CCCCn1c(N)c(Sc2ccccc2[N+](=O)[O-])c(=O)[nH]c1=O", "Potency": "inconclusive: 8.91 µM [quencher, side channel, partial curve]"},
      {"smiles": "Cc1cc(C(=O)Nc2ccc(N3CCOCC3)c(Cl)c2)c(C)o1", "activity change, negative = inhibition": "inactive: -13.5%"},
      {"smiles": "O=C(c1ccc(NC2=NC3CS(=O)(=O)CC3S2)cc1)N1CCN(c2ccc([N+](=O)[O-])cc2)CC1", "note": "(stereo not given)", "Potency": "inconclusive: 12.6 µM [quencher, side channel, partial curve]"},
      {"smiles": "Cc1ccsc1C(=O)N/N=C/c1ccc([N+](=O)[O-])cc1", "Potency": "inconclusive: 3.16 µM [quencher, side channel, full curve, poor fit]"},
      {"smiles": "CCC/C(O)=N\\S(=O)(=O)c1ccc(N=NN(C)C)cc1", "Potency": "inconclusive: 6.31 µM [quencher, side channel, single point]"},
      {"smiles": "CCc1cc[n+](-c2nc3ccccc3nc2C(=C=[N-])C#N)cc1", "Potency": "inconclusive: 10 µM [quencher, side channel, partial curve]"},
      {"smiles": "CN(C)c1ccc(/C=C(\\NC(=O)c2ccccc2)C(=O)NCc2ccncc2)cc1", "Potency": "inconclusive: 35.5 µM [quencher, side channel, single point]"},
      {"smiles": "COc1cc(C(=O)O/N=C(\\N)c2cccc([N+](=O)[O-])c2)cc(OC)c1OC", "Potency": "inconclusive: 2 µM [quencher, side channel, full curve]"},
      {"smiles": "COc1cccc2oc(-c3ccco3)cc(=O)c12", "Potency": "inconclusive: 25.1 µM [quencher, side channel, single point]"},
      {"smiles": "N#Cc1ncc(Cc2ccccc2)nc1C#N", "Potency": "inconclusive: 25.1 µM [quencher, side channel, partial curve]"},
      {"smiles": "CCCCn1c(NC(=O)c2ccc(Br)o2)c(S(=O)(=O)c2ccccc2)c2nc3ccccc3nc21", "activity change, negative = inhibition": "inactive: 4.89%"},
      {"smiles": "CC(C)CC[n+]1ccn(C2=C([O-])c3ccccc3C(=O)/C2=N\\S(=O)(=O)c2ccccc2)c1", "Potency": "inconclusive: 3.16 µM [quencher, side channel, full curve]"},
      {"smiles": "CCOc1ccc(CCNC(=O)CN2C(=O)c3cccnc3Oc3ccc(Cl)cc32)cc1", "Potency": "inconclusive: 126 µM [inhibitor, single point]"},
      {"smiles": "C/C(=N/NS(=O)(=O)c1cccc([N+](=O)[O-])c1)c1ccc2c(c1)OCO2", "Potency": "inconclusive: 35.5 µM [quencher, side channel, single point]"},
      {"smiles": "O=[N+]([O-])c1nn(-c2ccc3c(c2)OCCO3)n(O)c1=NCc1ccccc1Cl", "Potency": "inconclusive: 5.62 µM [quencher, side channel, partial curve]"},
      {"smiles": "O=C(N/N=C/c1ccncc1)c1ccc(-n2cccc2)cc1", "Potency": "inconclusive: 14.1 µM [quencher, side channel, partial curve]"},
      {"smiles": "O=c1c(C(c2nnnn2C2CCCCC2)N2CCCCC2)coc2ccc(Cl)cc12", "note": "(stereo not given)", "activity change, negative = inhibition": "inactive: -4.94%"},
      {"smiles": "CCOC(=O)c1c(NC(=O)/C=C\\C(=O)O)sc(C)c1-c1ccccc1", "activity change, negative = inhibition": "inactive: 6.41%"},
      {"smiles": "CC(C)(CN1CCCC1)NS(=O)(=O)c1ccc(Cl)cc1", "activity change, negative = inhibition": "inactive: -6.8%"},
      {"smiles": "COc1cccc(NC(=O)c2nn(C34CC5CC(CC(C5)C3)C4)cc2[N+](=O)[O-])c1", "Potency": "inconclusive: 17.8 µM [quencher, side channel, single point]"},
      {"smiles": "COc1cccc(CNC(=O)C2CCN(S(=O)(=O)c3c(C)nn(C)c3C)CC2)c1", "activity change, negative = inhibition": "inactive: -2.34%"},
      {"smiles": "Cc1ccc(C)c(CSC2=NCCN2C(=O)Cc2ccc([N+](=O)[O-])cc2)c1", "Potency": "inconclusive: 28.2 µM [quencher, side channel, partial curve]"},
      {"smiles": "N/C(Cc1ccc([N+](=O)[O-])cc1)=N\\OC(=O)c1cccc(Br)c1", "Potency": "inconclusive: 20 µM [quencher, side channel, partial curve]"},
      {"smiles": "CC(C)(C)n1nc2c(c1NC(=O)c1cc(Cl)ccc1[N+](=O)[O-])CS(=O)(=O)C2", "Potency": "inconclusive: 8.91 µM [quencher, side channel, full curve]"},
      {"smiles": "CN(C)S(=O)(=O)c1ccc(N2CCN(S(=O)(=O)c3ccc(F)cc3)CC2)c(Cl)c1", "activity change, negative = inhibition": "inactive: -2.97%"},
      {"smiles": "COc1ccc(-n2c(CN3CCN(C)CC3)nc3ccc([N+](=O)[O-])cc3c2=O)c(OC)c1", "Potency": "inconclusive: 14.1 µM [quencher, side channel, partial curve]"},
      {"smiles": "O=C(O)c1ccc(S(=O)(=O)N2CCSCC2)cc1", "activity change, negative = inhibition": "inactive: -6.86%"},
      {"smiles": "O=[N+]([O-])c1ccc(Oc2cccc3cccnc23)c(Cl)c1", "Potency": "inconclusive: 25.1 µM [quencher, side channel, partial curve]"},
      {"smiles": "Cc1ccnc(N=Cc2nc(-c3ccccc3Br)oc2O)c1", "Potency": "inconclusive: 14.1 µM [quencher, partial curve]"},
      {"smiles": "O=C(COC(=O)CSc1ccc2ccccc2c1)NC1CCCC1", "Potency": "inconclusive: 22.4 µM [fluorescent, side channel, single point]"},
      {"smiles": "CC1CCN(C(=O)C2CCN(S(=O)(=O)c3cccc4nonc34)CC2)CC1", "Potency": "inconclusive: 15.8 µM [quencher, side channel, partial curve]"},
      {"smiles": "Cn1c2ccccc2c(=O)c2c(=O)n(-c3ccccc3)c(C3CCCCC3)nc21", "Potency": "inconclusive: 8.91 µM [fluorescent, side channel, full curve]"},
      {"smiles": "O=S(=O)(Nc1ccc(-n2cccc2)cc1)c1ccc(Cl)c(Cl)c1", "activity change, negative = inhibition": "inactive: -0.0051%"},
      {"smiles": "Cc1nn(C)cc1/C=C1\\CCC/C(=C\\c2cn(C)nc2C)C1=O", "Potency": "inconclusive: 12.6 µM [quencher, partial curve]"},
      {"smiles": "CCCCCCCCOc1ccc(C2OC34CCCCC3C(C#N)(C#N)C2(C#N)C(=N)O4)cc1", "note": "(stereo not given)", "Potency": "inconclusive: 25.1 µM [quencher, side channel, partial curve]"},
      {"smiles": "CC1=NN(C(=O)Cc2ccccc2)C(O)(c2cccnc2)C1", "note": "(stereo not given)", "activity change, negative = inhibition": "inactive: -8.86%"},
      {"smiles": "O=S(=O)(Nc1ccc(-c2cn3cccnc3n2)cc1)c1ccccc1", "Potency": "inconclusive: 28.2 µM [quencher, side channel, partial curve]"},
      {"smiles": "Cc1nc2c(C(=O)NCCC(C)C)c[nH]n2c(=O)c1Cl", "Potency": "inconclusive: 100 µM [inhibitor, single point]"},
      {"smiles": "Cc1cc(S(=O)(=O)Nc2cccc([N+](=O)[O-])c2)c(C)s1", "Potency": "inconclusive: 25.1 µM [quencher, side channel, single point]"},
      {"smiles": "N#Cc1ccncc1Sc1ccc(Cl)cc1", "activity change, negative = inhibition": "inactive: 2.96%"},
      {"smiles": "COc1cc(/C=N/NC(=O)c2cc[n+]([O-])cc2)cc(OC)c1OC", "Potency": "inconclusive: 31.6 µM [quencher, side channel, single point]"},
      {"smiles": "CNc1ccc(Oc2nc([N+](=O)[O-])nn2C)cc1", "Potency": "inconclusive: 25.1 µM [quencher, partial curve]"},
      {"smiles": "N#CC1(NC(=O)COc2ccc3oc4ccccc4c3c2)CCCCC1", "Potency": "inconclusive: 25.1 µM [fluorescent, side channel, partial curve, poor fit]"},
      {"smiles": "CC(C)(C)c1ccccc1NC(=O)Cn1cnc2cc([N+](=O)[O-])ccc2c1=O", "Potency": "inconclusive: 7.94 µM [quencher, side channel, partial curve]"},
      {"smiles": "C/C(=N\\Nc1ccccn1)c1ccc(C#N)cc1", "Potency": "inconclusive: 25.1 µM [quencher, side channel, single point]"},
      {"smiles": "COc1ccc(CC(=O)n2[nH]c(=O)ccc2=O)cc1OC", "activity change, negative = inhibition": "inactive: -1.58%"},
      {"smiles": "CCOC(=O)c1c(C)n(C(=O)c2ccco2)c(=O)n1C(=O)c1ccco1", "Potency": "inconclusive: 79.4 µM [inhibitor, partial curve]"},
      {"smiles": "O=C(Nc1ccc(O)c(-c2nc3ccccc3o2)c1)C1(c2ccc(Br)cc2)CCCC1", "activity change, negative = inhibition": "inactive: -3.67%"},
      {"smiles": "CCOC(=O)c1nnc(-c2ccccc2)nc1Sc1c(Cl)cccc1Cl", "Potency": "inconclusive: 14.1 µM [quencher, side channel, partial curve]"},
      {"smiles": "COc1ccc(N=C2NC(=O)CS2)c([N+](=O)[O-])c1", "Potency": "inconclusive: 25.1 µM [quencher, side channel, partial curve]"},
      {"smiles": "COc1ccccc1N1C(=O)C(Cl)=C(Nc2ccccc2O)C1=O", "Potency": "inconclusive: 14.1 µM [quencher, side channel, partial curve]"},
      {"smiles": "Cc1cc(C)c(S(=O)(=O)c2ccccc2)c(OC(=O)c2c(F)cccc2Cl)n1", "Potency": "inconclusive: 4.47 µM [quencher, side channel, single point]"},
      {"smiles": "O=C(NCc1cccnc1)C1CCCN(S(=O)(=O)c2cccc3nsnc23)C1", "note": "(stereo not given)", "Potency": "inconclusive: 15.8 µM [quencher, side channel, partial curve]"},
      {"smiles": "O=C(Oc1ccccc1)c1cc2ccccc2oc1=O", "Potency": "inconclusive: 15.8 µM [quencher, side channel, partial curve]"},
      {"smiles": "COc1ccc(C(=O)N/C(=C\\c2cc(OC)c(OC)cc2[N+](=O)[O-])C(=O)NCC(=O)O)cc1", "Potency": "inconclusive: 20 µM [quencher, side channel, partial curve, poor fit]"}
    ]}
  ]
}
